Laboratory results from PubChem BioAssay AID904 (National Center for Advancing Translational Sciences (NCATS), 2007).
Hit rate of the full screen: of about 55,000 compounds, about 530 (0.96%) were called active. Inconclusive means that the source gave no clear call. Such entries were picked first, then a sample of the others. Calls follow the shape of the dose curve; as a rule, active = well fitted cell-killing curve with a large enough effect; inconclusive = small, poorly fitted or top-dose-only effect; inactive = no such curve, though single readings can be large or run the other way. Potencies of inconclusive entries are doubtful fits and often do not repeat.

test: qHTS Screen for Compounds that Selectively Target Cancer Cells with p53 Mutations: Cytotoxicity of p53 Null Cells at the Nonpermissive Temperature; conditions: H1299 p53-null (neo) cells, 39C, ATPlite viability, 24 h; activity, negative = cell killing: at 46.1 µM (top of the series); also: nearly all actives have a fitted effect of over 50% in size;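 as to activity, negative = cell killing: 0% = DMSO only and -100% = full killing by 100 µM tamoxifen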
Summary of the method: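 Following overnight plating at 37C (600 cells/well), H1299-neo or H1299-p53A138V cells are dosed up to 46 uM. Incubation lasts 24 hr at 39C before ATP detection.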
Potency is read from the fitted curve at half-maximal effect; tags tell the direction and shape of the fitted curve.

Compound | Potency | activity, negative = cell killing
CCOc1ccccc1NC(=O)CSc1nc2cc(OC)c(OC)cc2c2nc(CCn3c(C)nc4ccccc43)nn12 | inconclusive: 10 µM [cytotoxic, partial curve] | 
CC1=C(C(=O)Nc2cccc(F)c2)C2(CCCCC2)OC1=O | inactive | 
CC1CCN(S(=O)(=O)c2ccc3nc(Nc4cccc(F)c4)ccc3c2)CC1 | inconclusive: 0.005 µM [cytotoxic, full curve, poor fit] | 
Cc1ccc(-c2cnc(C3CC3)o2)cc1S(=O)(=O)Nc1ccc(F)cc1Cl | inconclusive: 20 µM [cytotoxic, single point] | 
COc1cccc(NC(=O)c2oc3ccccc3c2NC(=O)c2ccc(OC(C)C)cc2)c1 | active: 12.6 µM | 
COc1cccc(C(=O)NCCc2sc(-c3cccc(C)c3)nc2C)c1 | inactive | 
CCOc1ccc(NC(=O)Cn2c(=O)n(CC(=O)NCCc3ccccc3)c(=O)c3sccc32)cc1 | inconclusive: 15.8 µM [cytotoxic, single point] | 
CC(C)c1ccc(NC(=O)C(Cc2ccccc2)n2cccc2)cc1 (stereo not drawn) | inconclusive: 35.5 µM [cytotoxic, single point] | 
Cc1ccc(Nc2nc(C(N)=O)c(NC(=O)c3ccccc3Br)s2)cc1 | inactive | 
Cc1ccc(CSc2nc3cccnc3n2Cc2ccc(C(=O)NCc3cccs3)cc2)cc1 | active: 15.8 µM | 
CC(C)(C)C(=O)Nc1ccc2nc(SCc3ccccc3)sc2c1 | inconclusive: 20 µM [cytotoxic, partial curve, poor fit] | 
CCCCN(CCCC)C1=C(C(=O)c2ccccc2)N(CC)S(=O)(=O)c2ccccc21 | inconclusive: 10 µM [cytotoxic, partial curve, poor fit] | 
Cc1cccc(OCc2nnc(-c3ccccc3)o2)c1 | inconclusive: 28.2 µM [cytotoxic, partial curve, poor fit] | 
O=C(CC1Oc2ccccc2NC1=O)NCc1ccc(F)cc1 (stereo not drawn) | inconclusive: 0.0079 µM [cytotoxic, full curve, poor fit] | 
CCc1ccc(NC(=O)c2ccc3c(O)c(S(=O)(=O)c4ccccc4)c(=O)[nH]c3c2)cc1 | inconclusive: 12.6 µM [cytotoxic, partial curve] | 
CC(C)c1ccc2occ(CC(=O)Nc3cccc(C(F)(F)F)c3)c2c1 | inconclusive: 31.6 µM [cytotoxic, single point] | 
CC(=O)c1sc(NC(=O)C2COc3ccccc3O2)nc1C (stereo not drawn) | inconclusive: 20 µM [cytotoxic, partial curve] | 
CCOc1ccc(CNCc2c(C(=O)O)n(Cc3ccc(OC)cc3)c3ccccc23)cc1 | inconclusive: 12.6 µM [cytotoxic, partial curve] | 
COc1ccc(Cl)cc1NC(=O)Cn1c(=O)n(CCCC(=O)NCCc2ccc(OC)c(OC)c2)c(=O)c2ccccc21 | inconclusive: 25.1 µM [cytotoxic, single point] | 
CCC(CC)C(=O)N1CCc2cc(OC)c(OC)cc2C1COc1ccc(C(=O)OC)cc1 (stereo not drawn) | inconclusive: 35.5 µM [cytotoxic, single point] | 
CCC(=O)Nc1ccc2nc(SCc3ccccc3)sc2c1 | inconclusive: 10 µM [cytotoxic, partial curve] | 

Compound | Potency | activity, negative = cell killing
COc1ccc(CC(=O)Nc2cc(-c3nc4cccnc4s3)ccc2C)cc1 | inconclusive: 20 µM [cytotoxic, partial curve] | 
O=C(CCC1CCCC1)Nc1ccc(OCC(=O)N2CCOCC2)cc1 | inconclusive: 6.31 µM [cytotoxic, partial curve, poor fit] | 
Cn1nc(-c2ccc(OCC(=O)Nc3ccc(Cl)cc3)cc2)c2ccccc2c1=O | inconclusive: 31.6 µM [cytotoxic, single point] | 
CNC(=O)COC(=O)c1ccc([N+](=O)[O-])cc1Cl | inactive | 
COc1cccc(CNC(=O)CN2CCCN(Cc3ccccc3)S2(=O)=O)c1 | inconclusive: 31.6 µM [cytotoxic, single point] | 
COc1ccc(C2=NC3(CCCCCC3)N(CC(=O)Nc3cccc(Cl)c3)C2=O)cc1 | inconclusive: 35.5 µM [cytotoxic, single point] | 
CCOc1nc(NC(=O)NS(=O)(=O)Oc2cccc(Cl)c2)nc(-c2ccccc2)n1 | inconclusive: 20 µM [cytotoxic, single point] | 
COc1ccc(-c2nn(-c3ccc(F)cc3)c3c2cnc2cc4c(cc23)OCO4)cc1 | inconclusive: 0.005 µM [cytotoxic, full curve, poor fit] | 
COc1ccc(CCNC(=O)c2c[nH]n3c(=O)c(Cc4ccccc4Cl)c(C)nc23)cc1OC | inconclusive: 12.6 µM [cytotoxic, single point] | 
COc1ccc(OCc2ccc(-c3nc(C#N)c(N4CCC(C(N)=O)CC4)o3)o2)cc1 | inconclusive: 35.5 µM [cytotoxic, single point] | 
CCCN(C(=O)c1cc2c(=O)n(CC)c3ccccc3c2s1)c1ccccc1F | inconclusive: 3.16 µM [cytotoxic, single point] | 
COc1ccc(C)cc1NS(=O)(=O)c1ccc(-c2cnc(C3CC3)o2)cc1 | inconclusive: 0.631 µM [cytotoxic, full curve, poor fit] | 
COc1ccc(-c2cc(C(F)(F)F)nc(SCCC(=O)Nc3ccc(O)cc3)n2)cc1 | inactive | 
Cc1ccc(-n2nc3c(N4CCC(C(=O)NCCC(C)C)CC4)nnc(C)c3c2C)cc1 | inconclusive: 25.1 µM [cytotoxic, single point] | 
COc1ccc(-c2csc(-c3c(N)c(C(=O)c4ccccc4)n4ccccc34)n2)cc1 | inconclusive: 1 µM [cytotoxic, full curve] | 
CCC(Cc1ccccc1)NC(=O)Cn1ncc2c3ccccc3n(Cc3ccc(F)cc3)c2c1=O (stereo not drawn) | inconclusive: 15.8 µM [cytotoxic, partial curve] | 
COc1ccc(Cl)cc1NC(=O)CCCS(=O)(=O)c1nc(-c2ccc(OC)c(OC)c2)cc(C(F)(F)F)n1 | inconclusive: 31.6 µM [cytotoxic, single point] | 
Cc1ccc(-c2n[nH]c3c2C(c2cccs2)N(c2ccc(Cl)cc2)C3=O)cc1 (stereo not drawn) | inconclusive: 10 µM [cytotoxic, partial curve, poor fit] | 
Cc1ccc(C(=O)CC2(O)C(=O)N(Cc3ccccc3)c3ccc(Br)cc32)cc1 (stereo not drawn) | inconclusive: 22.4 µM [cytotoxic, single point] | 
Cc1cc(S(=O)(=O)Nc2ccc3[nH]c(=O)sc3c2)ccc1F | inactive | 
O=C(Cn1cc(S(=O)(=O)Cc2ccccc2Cl)c2ccccc21)Nc1cccc(C(F)(F)F)c1 | inconclusive: 14.1 µM [cytotoxic, single point] | 

Compound | Potency | activity, negative = cell killing
COc1ccc(C2c3c(-c4ccc(F)cc4)n[nH]c3C(=O)N2c2ccccc2)cc1OC (stereo not drawn) | inconclusive: 22.4 µM [cytotoxic, single point] | 
Fc1ccc(N2CCN(c3ncnc4c3nc3n4CCCC3)CC2)cc1 | inactive | 
O=C(COc1ccccc1)Nc1ccc2nc(SCC(=O)N3CCCC3)sc2c1 | inconclusive: 0.0501 µM [cytotoxic, full curve, poor fit] | 
Fc1ccccc1Nc1ncnc2c1nc1n2CCCCC1 | inconclusive: 11.2 µM [cytotoxic, partial curve, poor fit] | 
O=C(CCn1ccc2cc(S(=O)(=O)N3CCCC3)ccc21)NCc1ccccc1Cl | inactive | 
COc1cc(OC)c(NC(=O)Cn2cnc3nc4c(cc3c2=O)CCCC4)cc1Cl | inconclusive: 0.316 µM [cytotoxic, full curve, poor fit] | 
Fc1ccc(Nc2c(-c3ccco3)nc3ccccn23)cc1 | inconclusive: 0.0501 µM [cytotoxic, full curve, poor fit] | 
Cc1ccn2c(Nc3ccccc3C)c(-c3cccnc3)nc2c1 | inconclusive: 0.316 µM [cytotoxic, partial curve, poor fit] | 
CC(=O)Nc1ccc(NC(=O)CCc2c(C)nc3c(c(C)nn3-c3ccccc3)c2C)cc1 | inconclusive: 0.501 µM [cytotoxic, full curve, poor fit] | 
COc1ccc(Nc2c3c(nc4nncn24)CCC3)cc1Cl | inactive | 
COc1ccc(NC(=O)CC2C(=O)N(c3ccc(C)cc3)C(=O)N2Cc2ccc(C)cc2)cc1 (stereo not drawn) | inactive | 
COc1ccc(CCNC(=O)Cn2nc(C)c3c(C)n(-c4ccc(C)cc4)nc3c2=O)c(OC)c1 | inactive | 
Cc1ccc(NC(=O)Cn2cc(C(=O)C3CCCCC3)c3ccccc32)c(C)c1 | inactive | 
Cc1cccc(C(=O)Nc2nnc(S(=O)(=O)N3CCCc4ccccc43)s2)c1 | inactive | 
Cn1c(=O)n(C)c2cc(NS(=O)(=O)c3ccc(C(C)(C)C)cc3)c(NCc3ccccc3)cc21 | inconclusive: 7.08 µM [cytotoxic, full curve, poor fit] | 
CCS(=O)(=O)N1CCc2cc(C(=O)Nc3cc(OC)c(Cl)cc3OC)ccc21 | inconclusive: 35.5 µM [cytotoxic, single point] | 
COc1ccc(C(=O)Nc2nc3c(s2)Cc2cc(OC)ccc2-3)cc1 |  | inconclusive: -32.6% [cytotoxic]
Cc1ccccc1NCc1nc2ccccc2n1CCOc1ccccc1 | inconclusive: 25.1 µM [cytotoxic, single point] | 
COc1ccc(OCc2cccc(C(=O)N3CCCC3)c2)cc1 | inconclusive: 11.2 µM [cytotoxic, partial curve, poor fit] | 
Cc1ccc(C(=O)NCC(c2cccnc2)N2CCc3ccccc3C2)cc1C (stereo not drawn) | inactive | 
COc1ccc(C(=O)Nc2cc(OC)nc(OC)n2)cc1 | active: 12.6 µM | 
